Measured values published in paper PMC4336329 (PLoS ONE, 2015).
Among all 310,000 compounds or so, about 14,000 (4.5%) showed an effect of 50% or more. Effects have a minus sign here. This is one part of the list.

These molecules were tested against human ether-à-go-go-related gene (hERG) potassium channel (human, UniProt Q12809) (assay: primary screen, population patch clamp on CHO cells stably expressing hERG).
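Further: peak tail current of the secondary pulse compared with the same well before compound.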

human ether-à-go-go-related gene (hERG) potassium channel, sequence (Q12809 whole entry, looked up): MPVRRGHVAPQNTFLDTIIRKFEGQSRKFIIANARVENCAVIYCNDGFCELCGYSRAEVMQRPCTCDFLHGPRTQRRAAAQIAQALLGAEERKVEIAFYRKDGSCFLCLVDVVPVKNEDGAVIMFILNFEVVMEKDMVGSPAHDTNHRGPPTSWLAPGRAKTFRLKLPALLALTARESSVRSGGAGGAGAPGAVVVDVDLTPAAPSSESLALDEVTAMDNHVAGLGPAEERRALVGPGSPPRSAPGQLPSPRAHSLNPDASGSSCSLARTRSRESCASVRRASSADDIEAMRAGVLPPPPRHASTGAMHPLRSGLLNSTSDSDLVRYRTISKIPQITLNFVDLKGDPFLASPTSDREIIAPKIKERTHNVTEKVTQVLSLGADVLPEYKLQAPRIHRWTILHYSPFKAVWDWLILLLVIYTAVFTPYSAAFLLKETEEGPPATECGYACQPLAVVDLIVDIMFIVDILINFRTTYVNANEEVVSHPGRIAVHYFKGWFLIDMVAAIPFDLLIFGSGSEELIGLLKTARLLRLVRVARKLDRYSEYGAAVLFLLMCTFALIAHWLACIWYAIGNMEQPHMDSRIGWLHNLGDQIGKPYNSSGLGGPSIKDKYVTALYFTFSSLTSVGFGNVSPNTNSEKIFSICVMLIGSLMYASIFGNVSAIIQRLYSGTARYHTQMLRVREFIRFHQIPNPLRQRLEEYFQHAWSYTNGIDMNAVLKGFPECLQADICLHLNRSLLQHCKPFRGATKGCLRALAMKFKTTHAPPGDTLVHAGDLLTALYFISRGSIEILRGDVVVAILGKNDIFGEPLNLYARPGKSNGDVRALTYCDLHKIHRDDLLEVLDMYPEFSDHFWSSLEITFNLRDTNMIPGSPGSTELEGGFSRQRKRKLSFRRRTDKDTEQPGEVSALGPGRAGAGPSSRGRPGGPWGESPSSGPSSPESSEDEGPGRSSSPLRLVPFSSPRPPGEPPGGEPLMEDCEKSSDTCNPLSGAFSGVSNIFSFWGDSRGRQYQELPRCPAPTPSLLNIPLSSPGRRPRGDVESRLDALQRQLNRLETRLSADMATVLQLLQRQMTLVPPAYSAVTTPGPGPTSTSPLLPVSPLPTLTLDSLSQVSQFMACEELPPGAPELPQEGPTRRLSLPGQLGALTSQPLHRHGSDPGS

Row | SMILES | hERG current change (%, negative = inhibition) at 10uM [%]
1 | CC(=O)c1sc(N)nc1C | 15.4
2 | Cc1cc(OCCCC(=O)Nc2cccc(-n3cnnn3)c2)ccc1Cl | 3.45
3 | CC(C)CCC(C(=O)O)C(C)CC(=O)NNC(=O)c1ccco1 (centres unmarked) | 7.82
4 | Cc1ccc(C)c(Nc2cc(C)nc3ncnn23)c1 | 5.63
5 | CCOC(=O)Cn1c(-c2cccnc2)nc(-c2ccccc2)c1-c1ccccc1 | 0.903
6 | COc1cc(C=O)ccc1OC(=O)Nc1ccccc1 | 5.93
7 | COc1ccc(C2CC(c3cccc(OC)c3)n3nc(N)nc3N2)cc1 (centres unmarked) | -12.8
8 | O=C(NCc1ccccn1)c1cccc(S(=O)(=O)N2CCCCC2)c1 | -35.3
9 | O=C(Nc1cccc(C(=O)O)c1)/C(=C\c1ccco1)NC(=O)c1ccc(Br)o1 | -28.1
10 | CCOC(=O)c1c(C)[nH]c(C)c1S(=O)(=O)N(C)CC(=O)NCc1ccc(C)cc1 | -6.66
11 | COc1ccc(NC(=O)C2CCCN2S(=O)(=O)c2ccc(Cl)cc2)cc1 (centres unmarked) | 3.26
12 | Cl.Cn1c(=N)n(CC(O)c2ccco2)c2ccccc21 (centres unmarked) | -9.79
13 | CCC(C)(C)NC(=O)CN(Cc1cccs1)C(=O)CNS(=O)(=O)c1ccc(C)cc1 | -5.08
14 | CC(=O)Nc1ccc(S(=O)(=O)NC2(C(F)(F)F)N=C(c3ccccc3)NC2=O)cc1 (centres unmarked) | 16.6
15 | O=C(c1ccc2c(c1)OCCO2)N(c1ccccn1)C1CCCCC1 | 2.06
16 | O=C(Nc1ccncc1)c1cn(-c2ccccc2)nc1-c1cccs1 | 9.81
17 | Cl.O=S(=O)(c1ccc(OCC(O)CNCc2ccco2)c(Cl)c1)N1CCOCC1 (centres unmarked) | -22.6
18 | CCn1c(C)cc(=S)c2ccccc21 | -7.86
19 | N#CC1(c2ccccc2)CCC(=NO)CC1 (centres unmarked) | 11.2

Row | SMILES | hERG current change (%, negative = inhibition) at 10uM [%]
20 | N#CC(Cc1cccc(CC(C#N)(c2ccccc2)c2ccccc2)c1)(c1ccccc1)c1ccccc1 | 18.7
21 | CCN(CC)CCn1c(C)nc2ccccc21.Cl | -9.07
22 | O=C(COc1ccc(Cl)cc1)NCCSc1ccccc1 | -18
23 | COC(=O)c1sccc1NC(=O)CSc1nnnn1-c1ccccc1F | 5.57
24 | Cc1cc(=O)oc2cc(OCC(=O)N3CC[C@@]4(O)CCCC[C@H]4C3)c(Cl)cc12 | 0.0429
25 | NC(=O)c1ccccc1OCC(=O)c1ccc(Cl)cc1 | 26.5
26 | COc1ccccc1N1CCN(CCN2C(=O)CC(=C3c4ccccc4-c4ccccc43)C2=O)CC1.Cl | 0.408
27 | COc1ccccc1C1/C(=C(/O)c2ccc(C)cc2)C(=O)C(=O)N1CC(C)O (centres unmarked) | 13.1
28 | CC(C)CC(=O)N1CCN(CC2CC=CCC2)CC1.O=C(O)C(=O)O (centres unmarked) | 10.6
29 | CCCNC(=O)c1c(Cl)cnn1-c1ccc(C)cc1 | 5.65
30 | O=C(CCC(=O)Nc1ccc(F)cc1)N/N=C/c1ccccc1O | -1.27
31 | O=C(c1ccco1)N1CCN(c2cc(=O)n(-c3ccc(Cl)cc3)c(=O)[nH]2)CC1 | -4.63
32 | CCCNC(=O)c1ccc2c(=O)c(O)c(-c3ccsc3)[nH]c2c1 | -3.69
33 | CCn1c(SCC(=O)N2CCCCCC2)nc2c(c1=O)SCC2 | -5.09
34 | Cc1ccc(OC(=O)C2CSC3(C)CCC(=O)N23)c(Br)c1 (centres unmarked) | -17.4
35 | Cc1ccc(C(=O)OC(C)C(=O)NCc2ccc3c(c2)OCO3)cc1S(=O)(=O)N1CCOCC1 (centres unmarked) | 10.7
36 | CC(OC(=O)c1ccc(Cl)c([N+](=O)[O-])c1)C(=O)N1CCN(Cc2ccccc2)CC1 (centres unmarked) | -71.1
37 | CC(NC(=O)c1ccccc1)C(=O)OCn1nnc2ccccc2c1=O (centres unmarked) | -2.94
38 | COc1cccc(CNC(=O)CCC2CCCN(c3cc(C)nc(N)n3)C2)c1 (centres unmarked) | -63.5

Row | SMILES | hERG current change (%, negative = inhibition) at 10uM [%]
39 | COc1ccc(CCNC(=O)c2cc3c(=O)n4ccccc4nc3n(CCN3CCOCC3)c2=N)cc1 | -77.8
40 | COc1ccc(OC)c(Cc2nnc(CCC(=O)N3CCCCC3c3nccs3)o2)c1 (centres unmarked) | -8.55
41 | COc1ccc(N2C(=O)CC(N3CC=C(c4ccccc4)CC3)C2=O)cc1 (centres unmarked) | -12.5
42 | CC1(O)CC(c2ccc(Cl)cc2)=NN1C(=O)c1ccc(Cl)cc1 (centres unmarked) | 7.39
43 | Cc1ccc2cn[nH]c2c1NC(N)=S | 6.25
44 | CC(=O)Nc1cccc(C(=O)OCC(=O)NCc2cc(C)c(O)c(C)c2)c1 | -34.2
45 | COc1ccc(NC(=O)c2ccccc2[N+](=O)[O-])cc1 | 9.48
46 | CSc1ccc(CN2CCSCC2)cc1 | 2.79
47 | C=CCN1C(=O)C(O)(CC(=O)c2ccccn2)c2ccccc21 (centres unmarked) | 4.61
48 | O=C(CCSCCc1ccccn1)Nc1ccc(Cc2ccncc2)cc1 | -27.8
49 | CN(CC(=O)Nc1c(Cl)cccc1Cl)C(=O)C1CCN(C(=O)Nc2ccccc2)CC1 | 11.5
50 | CC(C)(C)c1ccc2c(c1)OC(C(=O)N/N=C\c1ccccn1)CO2 (centres unmarked) | -31
51 | Cc1cc(NC(=O)CSc2nnc(Cn3c(=O)sc4ccccc43)n2-c2ccccc2C)no1 | 2.54
52 | COc1ccc(-c2cc(C(=O)N3CCN(c4ccccc4O)CC3)c3ccccc3n2)cc1 | 8.88
53 | O=C(c1ccco1)c1cn(Cc2ccc(Cl)cc2)c2ccccc12 | 15.9
54 | CN(CC(=O)Nc1cccc(S(=O)(=O)NC2=NCCC2)c1)Cc1ccccc1Cl | -5.24
55 | CCOC(=O)COc1cccc2c(=O)n(CC(=O)NCc3ccccc3)ccc12 | 4.26
56 | CCOC(=O)C1=C(C)NC(=O)CC1c1cc(OC)c(OC)cc1Br (centres unmarked) | 4.37
